These are yes or no findings as the source states them, for the method shown. For part of these data: Binding seen in cells or lysates may run through a third protein. Some entries that bind do so weakly or less than the wild type. For part of these data: Sequences can lack the tags named with a protein.

The chains behind the UniProt entries cited, without tags or fusion partners. Where a name states a change or a piece, a line headed by the entry shows the natural chain unless it says otherwise. Residues count along the entry.
UniProt Q09825: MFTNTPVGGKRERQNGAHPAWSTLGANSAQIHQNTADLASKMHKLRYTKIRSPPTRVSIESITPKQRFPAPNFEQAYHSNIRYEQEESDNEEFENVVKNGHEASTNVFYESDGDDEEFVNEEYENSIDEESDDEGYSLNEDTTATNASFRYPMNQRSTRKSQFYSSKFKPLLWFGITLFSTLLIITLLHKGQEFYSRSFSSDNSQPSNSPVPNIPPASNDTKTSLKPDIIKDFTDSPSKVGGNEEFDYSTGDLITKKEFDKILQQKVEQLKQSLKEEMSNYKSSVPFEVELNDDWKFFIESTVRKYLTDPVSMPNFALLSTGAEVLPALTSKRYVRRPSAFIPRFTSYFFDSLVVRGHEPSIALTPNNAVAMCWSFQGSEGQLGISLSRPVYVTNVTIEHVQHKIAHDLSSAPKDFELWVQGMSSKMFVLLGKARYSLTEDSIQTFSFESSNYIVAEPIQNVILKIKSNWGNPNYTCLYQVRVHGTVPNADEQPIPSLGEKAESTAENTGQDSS
6His-MBP-Sad1(2-167): residues 2-167 of Q09825

For assay [1], the target named is 6His-MBP-Sad1(2-167) (S. pombe) (UniProt Q09825). As to the kind of experiment: pull-down; 6His-MBP-Sad1(2-167) or 6His-MBP on amylose resin mixed with candidate binding proteins, each protein at 5 μM; 20 mM HEPES pH 7.0, 150 mM NaCl, 1 mM TCEP, 0.01% Tween-20; 4°C 1 hr; Coomassie-stained SDS-PAGE; both purified.
The target in assay [2] is 6His-Sad1(2-167) (S. pombe) (UniProt Q09825). Description: SEC; His-tagged Mis18 full length and Sad1(2-167) expressed individually or co-expressed in E. coli, affinity purified (TALON), Superdex 200 10/300 GL; 20 mM HEPES pH 7.0, 150 mM NaCl, 2 mM DTT; both purified.
Assay [3] concerns the target Sad1-3V5 (C-terminally 3xV5-tagged Sad1) (S. pombe) (UniProt Q09825). Description: co-IP; anti-V5 or anti-Flag M2 antibodies cross-linked to Protein G Dynabeads, S. pombe cell extracts in SPB lysis buffer, benzonase, 4°C 2 hrs, western blotting. In general terms: A western blot detects proteins with antibodies after separation by electrophoresis.
In a further assay the target is Sad1-3Flag (S. pombe) (UniProt Q09825). The assay is described as above.

B1: 6His-msfGFP-TEV-Mis18(121-194) (domain or fragment, UniProt Q9P802 121-194)
chain: VNPEGLTRYQVDLEMREDIIKLKSFCLSLYEKFELHDETLRSVKETISSLKKPKIEGKEGKKEKARTYSKRTRK
Take B1: in assay [1], the binding entry was “no binding (tested: 5 μM)”.

B2: 6His-Mis18 full length (protein, UniProt Q9P802 1-194)
chain: MSQTETSHSGYIDFKKESQPSVFQCKKCFQIVGDSNAWVISHREYLSFTLSDAVENSVRVEDTFKRSDDGLCVYSELSCTRCNEVIGKVYNSTPIYLDDIRDMYTFSMDKLQAYQLGNKTVNPEGLTRYQVDLEMREDIIKLKSFCLSLYEKFELHDETLRSVKETISSLKKPKIEGKEGKKEKARTYSKRTRK
Consider B2, for which, in assay [2], the binding result is reported as “binds”.

B3: Mis18-3Flag (protein, UniProt Q9P802 1-194)
chain: B2 chain
On to B3, for which, in assay [3], the binding entry is reported as “binds”.

B4: full length Mis18-3V5 (protein, UniProt Q9P802 1-194)
chain: B2 chain
As for B4, the binding result with Sad1-3Flag (S. pombe) is on record as “binds”.

B5: 6His-3C-Mis18(1-120) (domain or fragment, UniProt Q9P802 1-120)
chain: MSQTETSHSGYIDFKKESQPSVFQCKKCFQIVGDSNAWVISHREYLSFTLSDAVENSVRVEDTFKRSDDGLCVYSELSCTRCNEVIGKVYNSTPIYLDDIRDMYTFSMDKLQAYQLGNKT
Consider B5, for which the binding entry in assay [1] was “no binding (tested: 5 μM)”.

B6: 6His-3C-Mis18(1-168) (domain or fragment, UniProt Q9P802 1-168)
chain: MSQTETSHSGYIDFKKESQPSVFQCKKCFQIVGDSNAWVISHREYLSFTLSDAVENSVRVEDTFKRSDDGLCVYSELSCTRCNEVIGKVYNSTPIYLDDIRDMYTFSMDKLQAYQLGNKTVNPEGLTRYQVDLEMREDIIKLKSFCLSLYEKFELHDETLRSVKETIS
On to B6, for which the binding entry in assay [1] is reported as “no binding (tested: 5 μM)”.

These data come from article PMC7618776, “Direct recruitment of Mis18 to interphase spindle pole bodies promotes CENP-A chromatin assembly” (Current biology : CB, 2023).
